Test results taken from PubChem BioAssay AID686978 (National Center for Advancing Translational Sciences (NCATS), 2013).
Out of some 420,000 compounds screened, about 64,000 (15%) were called active. Inconclusive results, whose numbers are uncertain, are shown with a selection of clear calls. The call rests on the fitted dose curve; in most records, active means well fitted inhibition curve with a large enough effect; inconclusive means small, poorly fitted or top-dose-only effect; inactive means flat fitted curve, though single readings scatter. No potency is given beside an inconclusive call; the fits are too rough.

experiment: qHTS for Inhibitors of human tyrosyl-DNA phosphodiesterase 1 (TDP1): qHTS in cells in absence of CPT; conditions: DT40 Tdp1-/- hTDP1 cells, no CPT, ATP luminescence, 48 h; activity change, negative = growth inhibition: at 46.2 µM (top of the series) unless noted; further: nearly all actives have a fitted effect of over 55% in size
Summary of the method: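 Chicken DT40 Tdp1-/- cells stably complemented with human TDP1 were seeded at 400 cells/well with DMSO in place of 20 nM camptothecin. After compound pinning, cells grew at least 48 hr at 37 °C; viability read by CellTiter-Glo luminescence.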
On the % scale 0 is the no-effect control and ±100 the full control effect; potency means the concentration at half of the fitted maximal effect; tags describe the fitted curve by direction and shape.

Compound	Potency	activity change, negative = growth inhibition
Cn1ccc2c(-c3ccc4[nH]ccc4c3)cc3c(c21)C1CCC3O1 (stereo unspecified)	inconclusive [inhibitor, single point]	–
Cn1c(=O)[nH]c(N)c(Br)c1=O	inconclusive [inhibitor, partial curve]	–
O=C(COc1ccc(-c2nnco2)cc1)Nc1c(Cl)cccc1C(F)(F)F	–	inactive: -24.7%
O=C(Nc1ccc(N2CCCCC2)c(S(=O)(=O)Nc2ccccc2Cl)c1)c1cccnc1	inconclusive [inhibitor, single point]	–
CCOC(=O)C1(CCOc2ccccc2)CCN(Cc2ccc(C)o2)CC1	inconclusive [inhibitor, single point]	–
CC1=C(c2ccc(Cl)cc2)S(=O)(=O)N=C1N1CCN(c2cc(C)ccc2C)CC1	inconclusive [inhibitor, single point]	–
CC1(C)Cc2c(oc3ncn4ncnc4c23)CO1	–	inactive: -2.19%
COc1ccc(/C=C/C(=O)c2cc(Cl)cc(Cl)c2O)c(OC)c1	inconclusive [inhibitor, partial curve]	–
O=C(Nc1nc(-c2ccccc2Cl)cs1)c1cccnc1	inconclusive [inhibitor, single point]	–
CCOC(=O)N1CCC(N(CCN(C)C)C(=S)Nc2ccc(Oc3ccccc3)cc2)CC1	–	inactive: -22.8%
CCCCN(C)C(=O)c1sc(=O)n(Cc2c(C)noc2C)c1C	–	inactive: -16.1%
COC(=O)Cn1ncc2c3ccccc3n(Cc3ccccc3)c2c1=O	–	inactive: -24.7%
Cc1ccc(S(=O)(=O)N(C)c2ccc(C(=O)NCc3ccccn3)cc2)cc1	inconclusive [inhibitor, single point]	–
CN1CCN(c2oc(-c3ccccc3)nc2S(=O)(=O)c2ccc(Br)cc2)CC1	inconclusive [inhibitor, single point]	–
Cc1ccc(NC(=S)NNC(=O)c2ccccc2O)c(C)c1	active: 13 µM	–
CCN(CC)S(=O)(=O)c1cccc(C(=O)N2CCCc3ccccc32)c1	inconclusive [inhibitor, single point]	–
CC(C)CN1CCC2(CC1)CCN(S(=O)(=O)c1ccccc1)CC2	active: 23.1 µM	–
COC(=O)c1ccc(/C=N/OCC(=O)Nc2cc(F)ccc2F)cc1	inconclusive [inhibitor, single point]	–
COc1ccc(-c2csc(NC(CO)c3nc4ccccc4n3CCCO)n2)cc1 (stereo unspecified)	inconclusive [inhibitor, single point]	–
O=C(O)C1CCC(=O)N1C(=O)OCc1ccccc1 (stereo unspecified)	inconclusive [inhibitor, single point]	–
CCCN1CCCc2cc(CN(CCCN3CCOCC3)C(=O)Nc3ccc(Cl)c(Cl)c3)ccc21	active: 7.31 µM	–
COc1cc(C(=O)N2CCN(c3ccccc3OC)CC2)c([N+](=O)[O-])cc1OC	inconclusive [inhibitor, partial curve]	–
Cc1cc(N2CCOCC2)ccc1/C=C1\SC(=O)N(C(C)C)C1=O	inconclusive [inhibitor, single point]	–
COc1cccc(Cn2c(=O)n(Cc3ccccc3)c(=O)c3c2c2cc(OC)ccc2n3C)c1	–	inactive: 7.95%

Compound	Potency	activity change, negative = growth inhibition
CCN(CC)S(=O)(=O)c1ccc(N2CCOCC2)c(NC(=O)c2nn(C(C)C)c(=O)c3ccccc23)c1	active: 5.17 µM	–
COC(=O)c1ccc(-n2c(C)cc(C(=O)COC(=O)CC3Sc4ccccc4NC3=O)c2C)cc1 (stereo unspecified)	inconclusive [inhibitor, single point]	–
COc1ccccc1C1=CC(=O)C[C@H](c2ccc3c(c2)OCO3)C1	active: 18.4 µM	–
CCCN1C(=O)/C(=C\C=C2/Sc3ccccc3N2CCO)SC1=S	inconclusive [inhibitor, partial curve]	–
CCN(C(=O)COC(=O)c1cc2ccccc2cc1OC)c1c(N)n(Cc2ccccc2)c(=O)[nH]c1=O	inconclusive [inhibitor, partial curve]	–
Cc1cccc(N(C)S(=O)(=O)c2ccc3c(c2)NC(=O)CC(=O)N3)c1	inactive	–
Cc1cc(C)nc(Nc2nc(C(N)Cc3ccccc3)cs2)n1 (stereo unspecified)	active: 5.17 µM	–
O/N=C(/c1ccc(F)cc1)C1CC1c1c(F)cccc1Cl (stereo unspecified)	inconclusive [inhibitor, partial curve]	–
O=C(COc1ccccc1)Nc1ccccc1C(=O)NC1CC1	inconclusive [inhibitor, single point]	–
Cc1ccc(NC(=O)CCC(=O)N/N=C/c2ccc([N+](=O)[O-])o2)cc1C	inconclusive [inhibitor, partial curve]	–
Cc1ccc(-c2cc3nc(NCCc4ccncc4)n(C)c(=O)c3s2)cc1	inconclusive [inhibitor, single point]	–
CCOC(=O)C1(CCCc2ccccc2)CCN(C(=O)c2ccoc2)CC1	inconclusive [inhibitor, single point]	–
COc1ccc(CCNC(=O)C2CCN(S(=O)(=O)c3ccc(Cl)cc3)CC2)cc1OC	–	inconclusive: -32.2% [inhibitor]
O=C(Nc1nnc(SCc2ccccc2)s1)c1cccc([N+](=O)[O-])c1	inconclusive [inhibitor, single point]	–
COc1ccccc1CN1C[C@@H]2C[C@@H](c3ccc(C)c(C)c3)N3CCC[C@@]23C1=O	active: 16.4 µM	–
Cc1onc(-c2ccccc2)c1C(=O)NNC(=S)NC(=O)c1ccc(F)cc1	inconclusive [inhibitor, single point]	–
CN(c1ccccc1)c1nc(N)c([N+](=O)[O-])c(N2CCCCC2)n1	inconclusive [inhibitor, partial curve, poor fit]	–
Cc1ccc(F)cc1NC(=O)Cc1nn(C)c(=O)c2ccccc12	inconclusive [inhibitor, single point]	–
COc1ccc2sc(N(Cc3cccnc3)C(=O)CCc3ccccc3)nc2c1	inconclusive [inhibitor, single point]	–
O=C(Cc1ccc(Cl)cc1)NCCc1c[nH]c2ccccc12	inconclusive [inhibitor, single point]	–
COCCn1nnnc1CN1CCC(Cc2ccccc2)CC1	–	inactive: -19.7%
O=C(NNc1ncccc1-n1cccc1)c1ccc(Cl)cc1	active: 7.31 µM	–
Cc1ccc(NC(=S)c2ccc3ccccc3n2)c(C)c1	inconclusive [inhibitor, partial curve]	–
CCOc1ccc(Cc2nnc(SCC(=O)Nc3c(C)cccc3C)[nH]c2=O)cc1	inconclusive [inhibitor, partial curve]	–

Compound	Potency	activity change, negative = growth inhibition
CCN(C(=O)Cn1nc(Cc2ccncc2)c2ccccc2c1=O)c1ccc(OC)cc1	–	inconclusive: -30% [inhibitor]
O=C(NNc1ccccc1C(F)(F)F)c1sccc1Cl	inconclusive [inhibitor, single point]	–
COC(=O)c1c(NC(=O)c2ccc(C(C)(C)C)cc2)sc2c1CCC(C)C2 (stereo unspecified)	–	inactive: 5.87%
O=C(CN(C(=O)CNC(=O)c1cccs1)c1cccc(F)c1)NC1CCCCC1	–	inactive: -5.97%
CCOC(=O)C1(CCOC)CCN(C2C3CC4CC(C3)CC2C4)CC1 (stereo unspecified)	–	inactive: -21.2%
COc1ccc(-c2cc(C(F)(F)F)n3nc(C(=O)NCc4ccco4)cc3n2)cc1	–	inactive: -26.4%
CC(=O)Nc1cccc(NC(=O)CS(=O)(=O)c2cn(CC(=O)N(C(C)C)C(C)C)c3ccccc23)c1	–	inactive: 14.1%
C[C@@H](C(=O)NCCc1ccc(F)cc1)N1C(=O)N2CCc3c([nH]c4ccccc34)[C@@]2(C)C1=O	active: 11.6 µM	–
CCOc1cc(C(=O)OCc2cccc(OC)c2OC)ccc1OCC(=O)N1CCOCC1	–	inconclusive: -40.9% [inhibitor]
O=C(Nc1ccc(Cl)cc1)Nc1nnc(SCc2ccccc2)s1	inconclusive [inhibitor, partial curve]	–
O=C(CSc1nc(=O)n(Cc2ccncc2)c2c1CCC2)Nc1cccc(F)c1	inconclusive [inhibitor, single point]	–
CCOc1ccc(CCNC(=O)c2ccc(CSCc3ccccc3C)o2)cc1OCC	active: 16.4 µM	–
Nc1ncc(-c2ccc([N+](=O)[O-])cc2)cn1	inconclusive [inhibitor, single point]	–
Cc1ccc(NC(=O)C2CCN(S(=O)(=O)c3ccc4c(c3)NC(=O)C(C)S4)CC2)cc1Cl (stereo unspecified)	active: 1.16 µM	–
NS(=O)(=O)c1ccc(CCNC(=O)C2CCCCN2S(=O)(=O)c2ccccc2)cc1 (stereo unspecified)	–	inactive: -11.4%
COc1cc(OC)c2c(c1)OC(c1ccc(OC)c(OC)c1)C(O)C2=O (stereo unspecified)	inconclusive [inhibitor, single point]	–
O=C(COC(=O)c1ccccc1[N+](=O)[O-])Nc1nnc(-c2ccccc2)o1	–	inactive: -20%
COc1cc(C(F)(F)F)c(C(=O)N(C)Cc2cccc(Cl)c2)cn1	inconclusive [inhibitor, single point]	–
O=C(/C=C/c1cn(-c2ccccc2)nc1-c1cccs1)NCCN1CCOCC1	inconclusive [inhibitor, single point]	–
Cc1ccc(C(=O)OCC(=O)NCc2ccc3c(c2)OCO3)cc1S(=O)(=O)N1CCOCC1	–	inactive: -11.9%
COc1cccc(CN(C)C(=O)c2ccc(S(=O)(=O)Nc3ccccc3C)cc2)c1OC	–	inactive: -46.1%
CCc1ccc(NC(=O)CNC(=O)Cn2c(C)cc3ccccc3c2=O)cc1	–	inactive: -2.44%
O=C(Nc1ccc(Cl)c(Cl)c1)Nc1ccccc1O	inconclusive [inhibitor, single point]	–
